Whole data set: some 33,000 sequences, median “E-score (-0.5 to 0.5)” near -0.017, cut for the highest 2% near 0.3. The list shows a part of the results.
What follows are sequences tested against T1, Sut1 (UniProt P53032) (assay: PBM E-score (8-mer binding enrichment) (E-score (-0.5 to 0.5)); higher = stronger / more preferred TF binding; most listed sequences are background and not binding sites). Settings: protein concentration: 200 nM; construct: GST-full length.
T1 sequence: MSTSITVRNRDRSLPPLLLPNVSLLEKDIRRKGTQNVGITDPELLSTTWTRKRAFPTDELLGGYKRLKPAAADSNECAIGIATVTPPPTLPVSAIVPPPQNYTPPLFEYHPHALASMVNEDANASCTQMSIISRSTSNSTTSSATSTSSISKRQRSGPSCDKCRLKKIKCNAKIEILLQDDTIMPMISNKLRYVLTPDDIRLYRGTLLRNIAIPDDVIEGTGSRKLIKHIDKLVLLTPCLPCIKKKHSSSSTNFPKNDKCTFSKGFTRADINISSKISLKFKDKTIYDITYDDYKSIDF
Summary of the method: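 Universal all-10-mer Agilent arrays, fresh or stripped once, were converted to double-stranded form by primer extension. GST-tagged yeast transcription factors from PURExpress in vitro transcription/translation, full-length or DNA-binding domain only, were applied at about 100-200 nM and detected with fluorescent anti-GST. After masliner normalisation, the Universal PBM Analysis Suite scored each ungapped eight-base word together with its reverse complement by E-score.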
With ATCGCTGA the “PBM E-score” value was -0.0674.
In the case of CGCGGCGC, the “PBM E-score” value was -0.0595.
In the case of ACATAGAT, the “PBM E-score” value was 0.131.
With ACAACCGC the “PBM E-score” value was 0.126.
With TTCAGCAA the “PBM E-score” value was 0.00636.
For CCCCAATC, the “PBM E-score” value was -0.327.
In the case of TATCGGCA, the “PBM E-score” value was 0.0647.
In the case of ACTCGGAA, the “PBM E-score” value was 0.323.
With CGGGAGTA the “PBM E-score” value was 0.17.
For GCAACAGC, the “PBM E-score” value was -0.203.
In the case of ATTTCGAC, the “PBM E-score” value was 0.0327.
ACCGCTCA was tested, and the “PBM E-score” value was -0.104.
For GGGCCCAC, the “PBM E-score” value was -0.00463.
With CGTCGCTC the “PBM E-score” value was -0.00803.
For AATTTGAT, the “PBM E-score” value was 0.152.
In the case of AAGAGCGA, the “PBM E-score” value was -0.101.
For GAAACTCA, the “PBM E-score” value was 0.0707.
In the case of GCAATCCA, the “PBM E-score” value was 0.0268.
With ACCAAATG the “PBM E-score” value was -0.0167.
For CGAAACAA, the “PBM E-score” value was 0.159.
For ACCCTAGT, the “PBM E-score” value was -0.199.
With GTCATGAC the “PBM E-score” value was 0.0478.
CGACTGCG was tested, and the “PBM E-score” value was 0.0732.
In the case of GGGGTGCA, the “PBM E-score” value was -0.131.
For ACCATATA, the “PBM E-score” value was 0.263.
For AATCTCGA, the “PBM E-score” value was 0.0731.
With CGTGGCCC the “PBM E-score” value was -0.256.
CGGATAAG was tested, and the “PBM E-score” value was 0.0887.
In the case of GCTCCAGC, the “PBM E-score” value was -0.0983.
GGGAGCAA was tested, and the “PBM E-score” value was -0.147.
With AGTCGTAA the “PBM E-score” value was 0.107.
With GCCACGGC the “PBM E-score” value was -0.182.
In the case of GAAGCTCC, the “PBM E-score” value was 0.35.
For CATACAGC, the “PBM E-score” value was -0.216.
In the case of CCCAAGCA, the “PBM E-score” value was -0.165.
GGGTACAC was tested, and the “PBM E-score” value was -0.157.
With GCGCGTGA the “PBM E-score” value was -0.0155.
AAAACCAC was tested, and the “PBM E-score” value was 0.0541.
In the case of GACGCTTA, the “PBM E-score” value was -0.155.
With ACACTAGG the “PBM E-score” value was 0.018.
In the case of CTCCATAC, the “PBM E-score” value was 0.0459.
For GGCACGGA, the “PBM E-score” value was 0.175.
For CTCTTGTA, the “PBM E-score” value was 0.0891.
With CCTCTCTA the “PBM E-score” value was -0.295.
GGATAATA was tested, and the “PBM E-score” value was 0.159.
With CTAACATA the “PBM E-score” value was 0.211.
With GTCGCAAC the “PBM E-score” value was -0.112.
With AAGGTGAC the “PBM E-score” value was -0.141.
In the case of AAAGATTC, the “PBM E-score” value was 0.119.
For CGCGCCAG, the “PBM E-score” value was -0.0599.
GGCGGGAC was tested, and the “PBM E-score” value was -0.211.
In the case of ACCTCGTC, the “PBM E-score” value was 0.0103.
GTCCTTTA was tested, and the “PBM E-score” value was -0.00718.
ACGTAGAT was tested, and the “PBM E-score” value was -0.0336.
In the case of AGGACCAC, the “PBM E-score” value was -0.0917.
With GATTCCAC the “PBM E-score” value was 0.15.
With GGCTTCGA the “PBM E-score” value was -0.0873.
CACAAAGA was tested, and the “PBM E-score” value was -0.00788.
With GGTGGAAA the “PBM E-score” value was 0.0136.
For GTGCCTCA, the “PBM E-score” value was -0.178.
With ACTGTCGC the “PBM E-score” value was -0.0793.
In the case of AAGGACAC, the “PBM E-score” value was 0.0727.
TCTGATAA was tested, and the “PBM E-score” value was -0.0508.
In the case of TATCCAAA, the “PBM E-score” value was 0.209.
In the case of GCTAAAGA, the “PBM E-score” value was 0.114.
In the case of GGTAAAAA, the “PBM E-score” value was 0.111.
With CACGCGGC the “PBM E-score” value was -0.147.
With CTAGAAAA the “PBM E-score” value was 0.0566.
CTCTGTTC was tested, and the “PBM E-score” value was -0.156.
For CGATGGGC, the “PBM E-score” value was -0.193.
For CAATACTC, the “PBM E-score” value was 0.187.
ATGAGCTC was tested, and the “PBM E-score” value was -0.0175.
In the case of GGGCTCGA, the “PBM E-score” value was -0.318.
With AAAATTGG the “PBM E-score” value was 0.0883.
For CCGTTGTC, the “PBM E-score” value was 0.0994.
ACGGCTAT was tested, and the “PBM E-score” value was -0.0169.
For CACGGCGC, the “PBM E-score” value was -0.0542.
CTGGTTGC was tested, and the “PBM E-score” value was 0.229.
For GGTGGTTA, the “PBM E-score” value was -0.102.
In the case of CAGTAGAC, the “PBM E-score” value was -0.0193.
With GAATTAAC the “PBM E-score” value was 0.182.
AACACAGA was tested, and the “PBM E-score” value was -0.175.
CCCCCGAA was tested, and the “PBM E-score” value was -0.0826.
In the case of GAATCTAA, the “PBM E-score” value was 0.127.
For AGCCACTG, the “PBM E-score” value was -0.0195.
With CATCCTAC the “PBM E-score” value was -0.161.
For AAAGGAAT, the “PBM E-score” value was -0.00094.
In the case of GCGATTTA, the “PBM E-score” value was 0.00681.
GATAGGGC was tested, and the “PBM E-score” value was -0.146.
In the case of AGCTGGCC, the “PBM E-score” value was -0.0824.
GGTTGCAC was tested, and the “PBM E-score” value was -0.0582.
With GAGCCTCA the “PBM E-score” value was -0.198.
In the case of GCCGGAAA, the “PBM E-score” value was 0.244.
For CCCGTATC, the “PBM E-score” value was -0.174.
For CTAAGGAG, the “PBM E-score” value was -0.219.
With TAGTCACA the “PBM E-score” value was -0.0374.
For ATCCCCAA, the “PBM E-score” value was -0.0846.
For ATAGAAAT, the “PBM E-score” value was 0.289.
CGACTATC was tested, and the “PBM E-score” value was 0.0097.
With CCCTCCGA the “PBM E-score” value was 0.0492.
AGTGATTA was tested, and the “PBM E-score” value was 0.0842.
With AATCTGAC the “PBM E-score” value was 0.0152.
For CATACTTA, the “PBM E-score” value was -0.00679.
For GGCTCTCA, the “PBM E-score” value was -0.111.
In the case of TAGGGCGA, the “PBM E-score” value was -0.179.
In the case of CAAGTCTA, the “PBM E-score” value was 0.0167.
With CCTGGTCC the “PBM E-score” value was -0.0487.
For TAATGAGA, the “PBM E-score” value was 0.206.
For CCTATTCG, the “PBM E-score” value was -0.0612.
For CGCGCAGC, the “PBM E-score” value was -0.097.
In the case of CTCTGATA, the “PBM E-score” value was -0.0121.
For AAGATCAG, the “PBM E-score” value was -0.0975.
For ACTCGGTA, the “PBM E-score” value was -0.0445.
For TAGCCCTA, the “PBM E-score” value was -0.175.
In the case of CTGTGTCC, the “PBM E-score” value was 0.0176.
With CTTTTCTC the “PBM E-score” value was 0.107.
In the case of ACTCTAGC, the “PBM E-score” value was -0.0418.
For AAAGTCGA, the “PBM E-score” value was -0.0252.
In the case of GAGCACGC, the “PBM E-score” value was -0.0176.
In the case of ACCGTCTA, the “PBM E-score” value was -0.116.
AATCATAC was tested, and the “PBM E-score” value was 0.204.
In the case of AACACGCT, the “PBM E-score” value was -0.0943.
GTCCCGAA was tested, and the “PBM E-score” value was 0.00289.
In the case of AAGACACA, the “PBM E-score” value was -0.13.
With ACCGGGTA the “PBM E-score” value was -0.025.
AAATATCT was tested, and the “PBM E-score” value was 0.179.
In the case of CAGCATGA, the “PBM E-score” value was 0.0381.
For ATATCAAC, the “PBM E-score” value was 0.0351.
In the case of GCTCACAA, the “PBM E-score” value was 0.0416.
In the case of ATATATAT, the “PBM E-score” value was 0.302.
For CTAGGCTC, the “PBM E-score” value was -0.149.
For ACCGCGTG, the “PBM E-score” value was -0.15.
With CGTCCAAC the “PBM E-score” value was -0.0705.
For ACGTCTCT, the “PBM E-score” value was -0.0559.
For CCATCATC, the “PBM E-score” value was -0.0983.
For AACGCTAG, the “PBM E-score” value was 0.0323.
For CGATGTCA, the “PBM E-score” value was -0.0509.
For TCCAGGCA, the “PBM E-score” value was -0.0581.
In the case of AGAACGAG, the “PBM E-score” value was 0.071.
With CTTTTAGA the “PBM E-score” value was 0.0706.
In the case of GTGCCCAC, the “PBM E-score” value was -0.258.
In the case of CCAAGTAA, the “PBM E-score” value was -0.0496.
In the case of CCCCCGCC, the “PBM E-score” value was -0.266.
In the case of GACACAGC, the “PBM E-score” value was -0.0804.
With GACGAGTA the “PBM E-score” value was 0.0781.
For AGAGTTAT, the “PBM E-score” value was 0.0605.
In the case of CTGGCGCA, the “PBM E-score” value was -0.339.
GCTTTGCA was tested, and the “PBM E-score” value was -0.22.
AACCTTTA was tested, and the “PBM E-score” value was 0.0531.
CCGTCCTC was tested, and the “PBM E-score” value was -0.0982.
For AAACCGGA, the “PBM E-score” value was 0.309.
In the case of CTTACGGC, the “PBM E-score” value was -0.0526.
AACACCCC was tested, and the “PBM E-score” value was -0.0746.
In the case of CACCCGCC, the “PBM E-score” value was -0.06.
For ACCTCAAA, the “PBM E-score” value was 0.078.
TAGGAGGA was tested, and the “PBM E-score” value was -0.156.
With CCCTGGCA the “PBM E-score” value was -0.359.
In the case of GAAAAACA, the “PBM E-score” value was 0.125.
CGGGAAGC was tested, and the “PBM E-score” value was -0.119.
With GGAACTAC the “PBM E-score” value was -0.062.
With AGGGTGGA the “PBM E-score” value was -0.117.
In the case of ACTTACGA, the “PBM E-score” value was 0.202.
With CAGTGTAG the “PBM E-score” value was -0.0327.
In the case of ATAACCTC, the “PBM E-score” value was -0.0198.
With ATAGTATG the “PBM E-score” value was 0.277.
In the case of CGCTAAGA, the “PBM E-score” value was -0.106.
With ATGCATAG the “PBM E-score” value was 0.0432.
In the case of CCGTGTAG, the “PBM E-score” value was -0.104.
With GCGTAAGC the “PBM E-score” value was -0.083.
CAGCTATA was tested, and the “PBM E-score” value was 0.0551.
In the case of CGAATCAA, the “PBM E-score” value was 0.242.
In the case of CGCGTGCA, the “PBM E-score” value was -0.208.
